Results are given in words; binding and its absence hold for the method and conditions named. In cells and extracts the contact can be indirect. Some entries that bind do so weakly or less than the wild type. Each block holds one molecule with its values, some of them ahead of it.
Columns and labels:
[1] = molecular target: endogenous p65 (human (endogenous in 293T)) (UniProt Q04206); assay: co-IP; endogenous proteins, 293T cell lysates, cells untreated or treated with TNF-α (10 ng/ml) for the indicated times; IP with anti-p65 or anti-LRP16 antibody, immunoblot
[2] = molecular target: endogenous p65 (human (endogenous in 293T)) (UniProt Q04206); assay: co-IP; endogenous proteins, nuclear lysates of 293T cells transfected with control or LRP16 siRNAs and treated with 10 ng/ml TNF-α for the indicated times; IP and immunoblot with the indicated antibodies
[3] = molecular target: endogenous LRP16 (human (endogenous in 293T)) (UniProt Q9BQ69); assay: co-IP; endogenous proteins, 293T cell lysates, cells untreated or treated with TNF-α (10 ng/ml) for the indicated times; IP with anti-p65 or anti-LRP16 antibody, immunoblot
GST-LRP16 = GST-LRP16 (UniProt Q9BQ69); assay: pull-down; GST or GST fusion protein as bait, incubated with [35S]-labeled in vitro translated protein; done as described previously [23],[53]; only the target purified
Flag-tagged LRP16 = Flag-tagged LRP16 (UniProt Q9BQ69); assay: co-IP; 293T cells cotransfected with p65 and Flag-tagged LRP16 constructs, lysed 48 h after transfection; CoIP with the indicated antibodies

Chains of the proteins cited; added tags and fusions are not shown. Lines headed by an entry give the natural chain unless they say otherwise; changes in a name come on top. Residues count along the entry.
UniProt Q04206: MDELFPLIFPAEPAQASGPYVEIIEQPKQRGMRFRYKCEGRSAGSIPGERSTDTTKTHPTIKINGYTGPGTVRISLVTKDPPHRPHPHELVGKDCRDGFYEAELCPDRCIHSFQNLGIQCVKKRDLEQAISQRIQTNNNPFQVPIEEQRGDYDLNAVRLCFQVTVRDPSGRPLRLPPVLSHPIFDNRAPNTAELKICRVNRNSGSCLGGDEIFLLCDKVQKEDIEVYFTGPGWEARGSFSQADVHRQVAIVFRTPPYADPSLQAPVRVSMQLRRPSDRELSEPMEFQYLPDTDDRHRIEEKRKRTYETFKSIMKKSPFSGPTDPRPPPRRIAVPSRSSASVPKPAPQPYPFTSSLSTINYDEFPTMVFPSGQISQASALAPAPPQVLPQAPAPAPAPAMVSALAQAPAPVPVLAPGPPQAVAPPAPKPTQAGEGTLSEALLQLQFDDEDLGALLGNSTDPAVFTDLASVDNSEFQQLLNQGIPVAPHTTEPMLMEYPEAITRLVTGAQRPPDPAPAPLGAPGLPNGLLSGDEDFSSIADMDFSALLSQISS
UniProt Q9BQ69: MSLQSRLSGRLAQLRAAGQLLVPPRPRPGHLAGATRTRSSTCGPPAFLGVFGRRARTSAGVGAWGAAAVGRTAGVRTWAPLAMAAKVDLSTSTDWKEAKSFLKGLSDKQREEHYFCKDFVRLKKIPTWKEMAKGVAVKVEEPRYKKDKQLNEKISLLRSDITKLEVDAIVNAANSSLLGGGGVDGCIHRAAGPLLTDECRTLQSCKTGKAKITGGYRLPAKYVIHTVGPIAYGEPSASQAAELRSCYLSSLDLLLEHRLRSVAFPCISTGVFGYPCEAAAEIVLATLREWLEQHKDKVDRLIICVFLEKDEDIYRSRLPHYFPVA
UniProt P19838, residues 1-433: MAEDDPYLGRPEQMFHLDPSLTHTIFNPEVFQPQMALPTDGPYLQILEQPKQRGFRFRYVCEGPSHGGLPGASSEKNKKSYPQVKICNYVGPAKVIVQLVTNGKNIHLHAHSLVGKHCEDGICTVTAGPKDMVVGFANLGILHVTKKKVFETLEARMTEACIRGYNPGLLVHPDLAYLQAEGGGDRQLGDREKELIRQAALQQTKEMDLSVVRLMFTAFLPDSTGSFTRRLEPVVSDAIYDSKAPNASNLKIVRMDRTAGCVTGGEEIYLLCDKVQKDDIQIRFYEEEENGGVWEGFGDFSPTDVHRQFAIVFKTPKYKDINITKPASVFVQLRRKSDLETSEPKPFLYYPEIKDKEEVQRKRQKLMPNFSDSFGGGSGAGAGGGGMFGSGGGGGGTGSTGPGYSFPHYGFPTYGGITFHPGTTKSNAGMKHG

binding [1]: binds
Molecule: endogenous LRP16 (from UniProt Q9BQ69 1-325)

binding [2]: binds
Molecule: endogenous p50 (from UniProt P19838 1-433)

binding [3]: binds
Molecule: endogenous p65 (from UniProt Q04206 1-551)

binding (GST-LRP16): no binding
Molecule: p50 ([35S]methionine-labeled) (from UniProt P19838 1-433)

binding (GST-LRP16): binds
Molecule: p65 (full-length, [35S]-labeled, in vitro translated) (from UniProt Q04206 1-551)

binding (Flag-tagged LRP16): binds
Molecule: p65 (transfected) (from UniProt Q04206 1-551)

binding (GST-LRP16): binds
Molecule: p65 fragment 1–286 (from UniProt Q04206 1-286) (domain or fragment)

binding (GST-LRP16): binds
Molecule: p65 fragment 1–312 (from UniProt Q04206 1-312) (domain or fragment)

binding (GST-LRP16): binds
Molecule: p65 fragment 1–372 (from UniProt Q04206 1-372) (domain or fragment)

binding (GST-LRP16): no binding
Molecule: p65 fragment 285–551 (from UniProt Q04206 285-551) (domain or fragment)

binding (GST-LRP16): no binding
Molecule: p65 fragment 307–551 (from UniProt Q04206 307-551) (domain or fragment)

binding (GST-LRP16): no binding
B1: c-Rel ([35S]methionine-labeled) (protein, UniProt Q04864 1-619)
chain: MASGAYNPYIEIIEQPRQRGMRFRYKCEGRSAGSIPGEHSTDNNRTYPSIQIMNYYGKGKVRITLVTKNDPYKPHPHDLVGKDCRDGYYEAEFGQERRPLFFQNLGIRCVKKKEVKEAIITRIKAGINPFNVPEKQLNDIEDCDLNVVRLCFQVFLPDEHGNLTTALPPVVSNPIYDNRAPNTAELRICRVNKNCGSVRGGDEIFLLCDKVQKDDIEVRFVLNDWEAKGIFSQADVHRQVAIVFKTPPYCKAITEPVTVKMQLRRPSDQEVSESMDFRYLPDEKDTYGNKAKKQKTTLLFQKLCQDHVETGFRHVDQDGLELLTSGDPPTLASQSAGITVNFPERPRPGLLGSIGEGRYFKKEPNLFSHDAVVREMPTGVSSQAESYYPSPGPISSGLSHHASMAPLPSSSWSSVAHPTPRSGNTNPLSSFSTRTLPSNSQGIPPFLRIPVGNDLNASNACIYNNADDIVGMEASSMPSADLYGISDPNMLSNCSVNMMTTSSDSMGETDNPRLLSMNLENPSCNSVLDPRDLRQLHQMSSSSMSAGANSNTTVFVSQSDAFEGSDFSCADNSMINESGPSNSTNPNSHGFVQDSQYSGIGSMQNEQLSDSFPYEFFQV
modifications: [35S]methionine-labeled
